{"source": "paper PMC12136788", "binders": {"B1": {"name": "chr1:163116895:163116896:-_ENSG00000143248_ENST00000313961|hu_mus|FALSE|FALSE (ssRNA)", "RNA": "GGGAGUUCUACAGUCCGACGAUCACAGACAGCUUUAUGUUAAACUGGAUAUUUUUGUGACUUAGACUGACAAUGACUUGGUAAAUCUUUAUUACAAAGCAGUCAGAAAGAACCAAAAAAAAGAAAAAAAAAAGAAAAAGAAAACAACAGAGGAUUGAGCAUCA"}, "B2": {"name": "chr1:163116895:163116896:-_ENSG00000143248_ENST00000313961|hu_hu|FALSE|FALSE (ssRNA)", "RNA": "GGGAGUUCUACAGUCCGACGAUCUCUUUGCCUUAGGCAGGAUUUUUCUGUGAUUCUGAUUGUGUCUGACUACAAGCUGAAGAUAUCUUAAUUAAUAACAGGGCAGGAAGAAUUGAGUGGGGAAAGAAGGCCUUCGGACAGUAGCAACAGAGGAUUGAGCAUCA"}, "B3": {"name": "chr12:48362563:48362564:+_ENSG00000134291_ENST00000256686|hu_hu|hu_hu_hu_mus_False|28_68 (ssRNA)", "RNA": "GGGAGUUCUACAGUCCGACGAUCUCCGUCAAGCCCUUCGAUAGACCCUUGCGGGGGAAACUGUAAUAAUUCUAACUGGGGAAGGAAAAGAAACGCCAAAAACUUUCUUUCUUUCUUGGGUGGGGUGAGGCGGGAGGGGGAGGUCAACAGAGGAUUGAGCAUCA"}, "B4": {"name": "chr1:84720644:84720645:-_ENSMUSG00000026219_ENSMUST00000027421|mus_mus|motif|central (ssRNA)", "RNA": "GGGAGUUCUACAGUCCGACGAUCAUGAAUUUUAGAUUGUAUCUCAAUUUGAAUGAACACAGGAUGACAAGGCCUGGGGCGGAUGAAACUGUACGUGUUGUAUUUAAAAAGUAAAACAAACAAACAAAAACCAAACACCAAACCCAACAGAGGAUUGAGCAUCA"}, "B5": {"name": "chr7:151048522:151048523:+_ENSG00000013374_ENST00000566856|hu_mus|hu_hu_hu_mus_True|38_68 (ssRNA)", "RNA": "GGGAGUUCUACAGUCCGACGAUCCUGUUUCUUAUUUAUUACGAUCUUGAUGUAAUUUUCUUGAAAUCCAAAGGUUUCAGCUAUUUGACACCUCAGGUCUCUGCCAGUGACAUGCAAGCGGGUCUCCAACAAGCUUUUCUUAUCCAACAGAGGAUUGAGCAUCA"}, "B6": {"name": "chr10:57939204:57939205:+_ENSMUSG00000003226_ENSMUST00000003310|mus_hu|FALSE|FALSE (ssRNA)", "RNA": "GGGAGUUCUACAGUCCGACGAUCAGAUGGCCUUAAUCCUUCACCCGGCAUGGGCUGAACAAAAUUAGUUUUCCCAAAUUCUAUAGUCUUAGAUUCUGCAGAUCUUGAAGCAUGAGCUGCAAUCGGAGGUUUUGUGAAAUAUCCCAACAGAGGAUUGAGCAUCA"}, "B7": {"name": "chrX:103217195:103217196:+_ENSMUSG00000031231_ENSMUST00000033582|mus_mus|FALSE|FALSE (ssRNA)", "RNA": "GGGAGUUCUACAGUCCGACGAUCAUAGUAUAAUGAGUACAUGAUUCUUUGACUUGGCAUUCACUUAUAAGUUGGUUUUAAACAAUUCCUUGAUUAUUGUACCAGCUGGCACGACUACUGAUCUCUCCAUUCCUUUGGGGUGACCAACAGAGGAUUGAGCAUCA"}, "B8": {"name": "chr10:116622662:116622663:+_ENSG00000151553_ENST00000369248|hu_hu|motif|central (ssRNA)", "RNA": "GGGAGUUCUACAGUCCGACGAUCGAUAGGUGUAAAACAAGCCUCUAUGCACAUGCCACACAAUGCGUAUAUGCAAACAUGCGGCAUAAAAUAACUUCCUAGAGGGGGUAGUGACAGUUCCCUUCAAGCCGGAACCUUUGAUAGCAACAGAGGAUUGAGCAUCA"}, "B9": {"name": "3493990_3496593_1226_3pUTR_ENSMUSG00000024908_ENSMUST00000113997|mouse|control|control (ssRNA)", "RNA": "GGGAGUUCUACAGUCCGACGAUCCCCCACAGGUGGGUCCAAUAUACCCCAUGUAGUCUUCAUCACACUUUUCUUGGGUGGCUCGAGUAGGAGUUCAUGGAAAGAUCCAAGUCUUCCUCGGAUGGCUUCAAGAACACUCUUGUUCAACAGAGGAUUGAGCAUCA"}, "B10": {"name": "chr4:57314706:57314707:+_ENSG00000128050_ENST00000264221|hu_mus|hu_hu_hu_mus_True|1_1 (ssRNA)", "RNA": "GGGAGUUCUACAGUCCGACGAUCCAGAAUUUCAAAAAUAGCUUGUGUGGCAUGACUCAUGAUGUCCACUUCAGUCUGCCCUAUAACAAGGCCAGCAAAACAGAAUUUUGCAGCAAUGAGUUGCUCCUCAGACCACUGUGGGUCCAACAGAGGAUUGAGCAUCA"}, "B11": {"name": "88537602_88537722_2479_CDS_ENSMUSG00000022387_ENSMUST00000109381|mouse|control|control (ssRNA)", "RNA": "GGGAGUUCUACAGUCCGACGAUCCCGUUUACUCCGUGAGCCGCUGGACUUCAUGGAGCAGGUCAGGUCCAACUUGUCCAGAAGUUCUCUCAGCUGCUCCUCCAAGCUCAUGUGGGCCCUGUUGGCUGGGUCCAGCAACCUGUCCAACAGAGGAUUGAGCAUCA"}, "B12": {"name": "139358046_139358922_4529_CDS_ENSG00000148396_ENST00000313050|human|control|control (ssRNA)", "RNA": "GGGAGUUCUACAGUCCGACGAUCGUCGUCUUUGGCCAGGGGUCCCGGGAACGCCCGCAUCUCCUCCUGCUCAGACGUGUGCUGCAGCAAGGCCUCCAUGCUGUGGACCUCCACCAAGGCCGGCUGUCCUUCUGAAGGCAGAUUCAACAGAGGAUUGAGCAUCA"}, "B13": {"name": "chr19:16212804:16212805:+_ENSG00000167460_ENST00000300933|hu_mus|hu_hu_hu_mus_False|1_1 (ssRNA)", "RNA": "GGGAGUUCUACAGUCCGACGAUCAACAAUUCUGGAGUGAAGGAAAGAUGUAACAUGGAACAGCAUUAAAGCUCAGUCAGAAGGCACAUGGGCAACAAUGAUCACCCCAGCAUUCUCGCUUGGAAUGCUUAAAGACAGAUGUUUCAACAGAGGAUUGAGCAUCA"}, "B14": {"name": "chr16:94651144:94651145:+_ENSMUSG00000040785_ENSMUST00000117648|mus_hu|mus_mus_mus_hu_True|18_28 (ssRNA)", "RNA": "GGGAGUUCUACAGUCCGACGAUCAUUUUCUUGAAUCAAGUGGCGAAUAACAUAGUCCACUGCUUCAUUUAGAAAAUUUCUGCUAGAAAAACAGGUUGUAUAGUCUUCCGUGCUCAGAACCUUCCAAGAAAGCAAUUCUUUGAGCAACAGAGGAUUGAGCAUCA"}, "B15": {"name": "chr1:120503909:120503910:+_ENSMUSG00000064302_ENSMUST00000049404|mus_mus|motif|central (ssRNA)", "RNA": "GGGAGUUCUACAGUCCGACGAUCCUUUCUCCAUGUCAUGUAGAAGACAGGAGGGGGUCUUGUCCCAUCUGACCAUACUCGGAGAACAUAAGCAUAAAGAACACACAGCAAUACCCCAAACCACCCCCAAGUCUGUAUGGACUGCAACAGAGGAUUGAGCAUCA"}, "B16": {"name": "chr1:244855233:244855234:+_ENSG00000121644_ENST00000302550|hu_mus|hu_hu_hu_mus_True|58_58 (ssRNA)", "RNA": "GGGAGUUCUACAGUCCGACGAUCCAUCAGAUGGUAGGCGUUGCCCUUAUACUCUUUCCCCAGUUCUUCUACAAUUUUUUCUAUAUCAUCUUCUAGAAAGUCCGUACUUCCUAGAACAACAGCUUCUUUAAAUUUAAAUGUUUCCAACAGAGGAUUGAGCAUCA"}, "B17": {"name": "chr1:157179356:157179357:-_ENSMUSG00000026469_ENSMUST00000027741|perfect_dup|FALSE|FALSE (ssRNA)", "RNA": "GGGAGUUCUACAGUCCGACGAUCCAGGAUGAGACUGAGGUAGAACUCGCUGAAGGCCAGCUUAAGGUCUUUAAUGUUCCUAUGUUGGACACGCUCCUCGUGGGACAGGUGGAACACUGGCUUUCUGCGCUGUCGCAAUGUCGUCAACAGAGGAUUGAGCAUCA"}, "B18": {"name": "chr4:140556289:140556290:+_ENSMUSG00000036622_ENSMUST00000037055|mus_mus|mus_mus_mus_hu_False|8_48 (ssRNA)", "RNA": "GGGAGUUCUACAGUCCGACGAUCGAUGGAGCUCACCAGGCCCCCUUUUGCCGUGCAGAACCCUGUGCGGGUCACCACUGCCAGGACACGGGGUCCCACAUAGGCCCGGGCCUGCAAGAUGAGGGUCCCACAGAAGAGUGUGUGCAACAGAGGAUUGAGCAUCA"}, "B19": {"name": "chr2:153583694:153583695:+_ENSMUSG00000027479_ENSMUST00000028981|perfect_dup|motif|central (ssRNA)", "RNA": "GGGAGUUCUACAGUCCGACGAUCGAAAAACUUCUUGAACCACUGAACGAAUUCAAAAUUGUCCUGAAACUUUCCUUUUACGGAUUUGUCCACAGGAAUUAUUUUGUCAACACCCAUUCUCUUAAAACCUGCUUGUAGUAUUUUCAACAGAGGAUUGAGCAUCA"}, "B20": {"name": "chr11:85733470:85733471:-_ENSG00000073921_ENST00000532317|hu_mus|FALSE|FALSE (ssRNA)", "RNA": "GGGAGUUCUACAGUCCGACGAUCUUUUGUGAAAUCGAAUGCAACUUGUCUGUAUGAAACUGCUUUUUCAUUUAAGUAUCUACUAUACCGUCUAAUAAAUGUAGACAUAUCAUAUCCUUGCAAUCCACUUUUAUCCAAAAAAUUCAACAGAGGAUUGAGCAUCA"}, "B21": {"name": "chr4:132926270:132926271:+_ENSMUSG00000028854_ENSMUST00000030669|mus_hu|FALSE|FALSE (ssRNA)", "RNA": "GGGAGUUCUACAGUCCGACGAUCUGGGUUUGCAAUCUGGAACUCCAAAGUGGGGAAAGGGGGCAAGGACCCAGGAACGACCACGAAAGGAGACCAAAAGGUCUGGAACUCCGGGCCUGGGAAGGGGGAGGACGGAUGUGGGAACAACAGAGGAUUGAGCAUCA"}, "B22": {"name": "chr5:72798818:72798819:+_ENSG00000145741_ENST00000335895|hu_hu|FALSE|FALSE (ssRNA)", "RNA": "GGGAGUUCUACAGUCCGACGAUCGAUGCUGGGUAGCAUUUCUGUCAGCUGCUUUGUCUCAGCAUGGCCUGUAAUGGUGAAAGUGUUCGCUGCCAGAGAUGCCUGAACUUUAGGGUUGUUAAAGUGGAUCACUGUUCCUUGGUUCAACAGAGGAUUGAGCAUCA"}}, "note": "Some of the results follow.", "data": [{"target": "T1, UNK ZnF1-3 (human, UniProt Q9C0B0 31-174)", "T1 sequence": "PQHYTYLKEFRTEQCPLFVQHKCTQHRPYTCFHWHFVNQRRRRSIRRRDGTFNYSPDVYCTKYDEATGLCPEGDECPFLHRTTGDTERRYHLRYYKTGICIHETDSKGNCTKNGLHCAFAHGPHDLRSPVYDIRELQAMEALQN", "assay": "nsRBNS (natural sequence RNA bind-n-seq); RBNS binding buffer (assumed for nsRBNS): 25 mM Tris pH 7.5, 150 mM KCl, 3 mM MgCl2, 0.01% Triton X-100, 500 ug/ml BSA, 20 U/ml SUPERase-In, 4 C; UNK is unkempt and MSI1 is Musashi-1; names of the RNAs are library labels; protein concentration not given here; high values mean tight binding", "units": {"binding signal": "enrichment R"}, "values": [{"binder": "B1", "binding signal": 2.23}, {"binder": "B2", "binding signal": 1.6}, {"binder": "B3", "binding signal": 1.62}, {"binder": "B4", "binding signal": 1.7}, {"binder": "B5", "binding signal": 0.681}, {"binder": "B6", "binding signal": 1.07}, {"binder": "B7", "binding signal": 0.635}, {"binder": "B8", "binding signal": 0.378}, {"binder": "B9", "binding signal": 0.788}, {"binder": "B10", "binding signal": 0.858}, {"binder": "B11", "binding signal": 0.471}, {"binder": "B12", "binding signal": 0.435}, {"binder": "B13", "binding signal": 1.34}, {"binder": "B14", "binding signal": 0.575}, {"binder": "B15", "binding signal": 1.71}, {"binder": "B16", "binding signal": 1.56}, {"binder": "B17", "binding signal": 0.819}, {"binder": "B18", "binding signal": 0.977}, {"binder": "B19", "binding signal": 0.711}, {"binder": "B20", "binding signal": 0.389}, {"binder": "B21", "binding signal": 1.62}, {"binder": "B22", "binding signal": 0.447}]}]}
